T1: UNK ZnF1-6 (called full-length) (human, UniProt Q9C0B0 30-357)
T1 sequence: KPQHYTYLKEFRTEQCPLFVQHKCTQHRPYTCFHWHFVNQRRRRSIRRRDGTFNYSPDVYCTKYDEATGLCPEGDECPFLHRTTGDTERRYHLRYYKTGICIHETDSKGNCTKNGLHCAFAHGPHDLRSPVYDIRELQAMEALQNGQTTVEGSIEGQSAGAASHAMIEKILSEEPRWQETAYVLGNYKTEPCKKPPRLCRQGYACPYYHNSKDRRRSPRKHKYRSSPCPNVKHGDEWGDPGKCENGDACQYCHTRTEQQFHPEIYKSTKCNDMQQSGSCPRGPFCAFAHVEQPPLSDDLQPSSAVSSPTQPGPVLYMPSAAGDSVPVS

B1: chr1:13049810:13050369:-|CDS|ENSG00000274764|control|control|control (ssRNA)
RNA: GGGAGUUCUACAGUCCGACGAUCGCCCCGCGGGAGAGUUAUGGUGCUGAUGGUACUCUCUGCUGGAACAGAUUUGCUCAAAUUAGGGCUGAGCUGAUGAACAGAGUGAGGGACUUAAGGCACCCCAAGAGGAUCUUUUUCUGUCAACAGAGGAUUGAGCAUCA
B2: chr12:111449306:111449407:+|3pUTR|ENSG00000111252|msi1|FALSE|unique (ssRNA)
RNA: GGGAGUUCUACAGUCCGACGAUCGCUGGCUUGGUGCCCUCCAAGCAUCUAAUGGCUUAUUAAAUUAUCCCACAAGUGGGUUUUAGGCUCCUUUUUUGAGCCAAAAUGGAAGCUGGGAAUCUGGUGCCAUAACUAAUGAGAAACCAACAGAGGAUUGAGCAUCA
B3: ENSG00000136451:be:win_4051|3pUTR|ENSG00000136451|bound_else_gene|NA|bound_elsewhere_windowed (ssRNA)
RNA: GGGAGUUCUACAGUCCGACGAUCGGUGGGCCACUGAAAAGGGGUACCGAAUAGGUUGUGUGAUGAAAUUCUGUGUCUUGGAACUGGAAUUGAGUUUCGAUGUUGAUGAACUGAUUCAACCAGGUGUUGAAGGCACGACAGCCACAACAGAGGAUUGAGCAUCA
B4: chr5:133955728:133955829:-|3pUTR|ENSG00000113583|msi1|FALSE|unique (ssRNA)
RNA: GGGAGUUCUACAGUCCGACGAUCUCAAUAUGUAAAUAUGUGAUUUGAACCAUGGUUGACUUACAAGUGUCACUACAGCUUUUUAGAAAACAUAGCCCUAAUAUAUGUUAAGCAGGACCCGGGUGAGCCAGUGGGCUUGCGCUUCAACAGAGGAUUGAGCAUCA
B5: ENSG00000056097:stop:overlap|stop_codon|ENSG00000056097|stop_codon|NA|stop_codon (ssRNA)
RNA: GGGAGUUCUACAGUCCGACGAUCAAGUCACUAUCACACUGACAUCUCCAAUUAUUCGAGAAGAGAACAUGAGGGAAGGAGGCUAGAGCUAAUGGUCUGCAGUCCUGUGUGAUUAUCAUACGCAUUCUUCGAGACCUCUGUCAGCAACAGAGGAUUGAGCAUCA
B6: chr8:102207567:102207681:-|3pUTR|ENSG00000048392|unk|total|mutant (ssRNA)
RNA: GGGAGUUCUACAGUCCGACGAUCUAUUAAUUGCAAUGAUGUUGUAAUAAAAUACUCUCAUUUCCUUAAAAUAAUUGUGAUUCCCGGUCCCCGGAUCCCGAAUCCGAUCUUUGUAUUUUUAAUGCUCCGGGGAAGAAUAUAAGUCAACAGAGGAUUGAGCAUCA
B7: ENSG00000198589:be:win_2351|CDS|ENSG00000198589|bound_else_gene|NA|bound_elsewhere_windowed (ssRNA)
RNA: GGGAGUUCUACAGUCCGACGAUCAUAAUGUGCUGUUUGAGAUUCUUAUAGAACAGAUUGGUACUCAGGUGAUACAUAAACAGCAUCCAGAUCCUGAUUCUUCAGUGAAGAUACAAAACCCUCAGAUACUAAAAGUAAUUGCGACAACAGAGGAUUGAGCAUCA
B8: ENSG00000198589:be:win_9051|3pUTR|ENSG00000198589|bound_else_gene|NA|bound_elsewhere_windowed (ssRNA)
RNA: GGGAGUUCUACAGUCCGACGAUCGUAAAUGUAAUUUAAAACAUCUCAAUUAAGUCUGUCUAUCAAUAUUGUUCUUCAAGCAUGUUUUAGACCUAGAAAAGUAUGGUUUGGGGGAGGCUAUUUUAUUGUGUGGUUAGCACAAGGCAACAGAGGAUUGAGCAUCA
B9: chr1:180199467:180199568:+|3pUTR|ENSG00000116260|msi1|FALSE|unique (ssRNA)
RNA: GGGAGUUCUACAGUCCGACGAUCCACAGGAACAAUUUCCUCAAGGAGACAGUGGCAUGGAGCUUUGAAAGACGAGUAGGUGUUAGCAAGGAAAUAAGGAGGAACGGGGGUUACGGGCAGAGGAGAAAGCACAUGCCAAGUCAGCAACAGAGGAUUGAGCAUCA
B10: chr1:111147767:111147876:+|CDS|ENSG00000134255|unk|FALSE|unique (ssRNA)
RNA: GGGAGUUCUACAGUCCGACGAUCAUUAAAUAAAUUGUUUCAGUUACCAACACCACCAUUGUCAAGACACCAACUAAAGCGGCUAGAAGAACACAGAUAUCAAAGUGCUGGACGGUCCCUGCUUGAGCCCUUAAUGCAAGGGUACAACAGAGGAUUGAGCAUCA
B11: chr4:186588032:186588133:-|3pUTR|ENSG00000083857|msi1|total|mutant (ssRNA)
RNA: GGGAGUUCUACAGUCCGACGAUCUUUUUUUACUAUAACCAGGGUUUCAUUCUGUCUUUUUCCACUGAAGUGUGACAUUUUGUCCGUACAUUUCAGUGCCGUCAUUCAUUUCCCGCUGUACACCGGAUGAAGGAGAGAUCAGAUCAACAGAGGAUUGAGCAUCA
B12: chr10:110133424:110133536:+|CDS|ENSG00000148700|unk|total|mutant (ssRNA)
RNA: GGGAGUUCUACAGUCCGACGAUCGCAUGAUGUUGAAGAUGAGCUUGCUAAGCGAGUGAGCCGGUUAAGCACAAGUACAACCACCGAAAACAUCGAGAUUACUAUUAAGUCUCCAGAGAAAAUCGAAGAAGUCCUGUCACCUGACAACAGAGGAUUGAGCAUCA
B13: ENSG00000136451:be:win_1051|CDS|ENSG00000136451|bound_else_gene|NA|bound_elsewhere_windowed (ssRNA)
RNA: GGGAGUUCUACAGUCCGACGAUCCAACAACAACAACAUGUGACAAGCUGGCCAGGGAAGCAAGUAGAAACACUGAGACUGUGGGAAGAAGCUGUUAAAGCAAGGAAGAAAGAAGCUGCUAACCUGUGCCAAACCUCCACGGCUCAACAGAGGAUUGAGCAUCA
B14: chr2:70277881:70277982:+|3pUTR|ENSG00000116005|msi1|FALSE|unique (ssRNA)
RNA: GGGAGUUCUACAGUCCGACGAUCACCUGAGGGAGAACUUAAAGACAUCUUAGUUGGGGAGUAGUCCUUUUGAAUUUUACAGCUAGAUAUAAUCUUCAGUCAGAUAAAAUUUAUGGGAGCUGGUGUCUUAUGCCUGACUCUUAGCAACAGAGGAUUGAGCAUCA

The list shows a part of the results.

The assay has as its target T1, UNK ZnF1-6 (called full-length). Put plainly: nsRBNS (natural sequence RNA bind-n-seq); RBNS binding buffer (assumed for nsRBNS): 25 mM Tris pH 7.5, 150 mM KCl, 3 mM MgCl2, 0.01% Triton X-100, 500 ug/ml BSA, 20 U/ml SUPERase-In, 4 C; UNK is unkempt and MSI1 is Musashi-1; names of the RNAs are library labels; protein concentration not given here; high values mean tight binding.
The molecule B1 returned a binding signal of 1.01 enrichment R.

The molecule B2 showed a binding signal of 0.676 enrichment R.

Regarding B3, the binding signal turned out to be 0.486 enrichment R.

As to B4, the binding signal is 1.2 enrichment R.

With B5, the binding signal worked out at 0.631 enrichment R.

Turning to B6, the binding signal worked out at 0.334 enrichment R.

B7: the binding signal turned out to be 0.376 enrichment R.

B8 returned a binding signal of 1.32 enrichment R.

As for B9, the binding signal came out at 1.51 enrichment R.

Consider B10, for which the binding signal amounted to 0.743 enrichment R.

On to B11, for which the binding signal turned out to be 0.542 enrichment R.

The molecule B12 displayed a binding signal of 0.335 enrichment R.

Turning to B13, the binding signal was determined as 0.759 enrichment R.

For B14, the binding signal was 0.742 enrichment R.

Source of the values: publication PMC12136788.
